Substrate in this data set: O=C(OCc1ccccc1)c1ccccc1-c1c2ccc(=O)cc-2oc2cc(OCc3ccccc3)ccc12
The data set is described as follows: pFluor50 Michaelis–Menten kinetics, CYP3A4 with DBF. In kind it is in vitro ADME, human. The following applies: pH 7.4. How it is done:
In general, the protocol for determination of the Michaelis–Menten kinetic parameters (KM and Vmax) involved addition of the appropriate master mix to phosphate buffer followed by addition of the appropriate amount of enzyme to the mix. The master mix was determined for each specific CPY450 based on empirical methods involving each reagent to obtain a linear range of enzyme activity. A total of 30 µL of this enzyme mix was then added to each well of the 384-well plate. Next, initial background readings were taken for 5 min, after which the appropriate amount of substrate was dispensed into each well using the onboard reagent dispenser of the plate reader. All plates contained one blank well without enzyme (only master mix) for each substrate concentration. […] Table 1 provides the formulation of the master mix for each CYP, the kinetic read time with substrate, the read time interval, the concentration range of the substrate used for the Michaelis–Menten kinetics, the Ex and Em wavelengths, and the concentration of substrate for inhibition/activation screening. Table S1 details the specific parameters used for the plate reader for each CYP–substrate pair.
For determining the Michaelis–Menten kinetic parameters (KM and Vmax) for each CYP–substrate pair, kinetic studies were performed in which a range of different concentrations of the substrate were used. Table 1 details the formulations for the master mix, CYPexpress^TM concentrations, and concentration ranges of each specific substrate. For each CYP–substrate pair, plate reader parameters were set up as described in Table S1. The protocol used for Michaelis–Menten kinetics was similar for all the CYPs. Briefly, the working solution was prepared for each substrate and then primed into one of the dispensers on the plate reader. The other dispenser was primed with the buffer solution. 1.5 mL of phosphate buffer solution (pH 7.4) was used to prepare the master mix with the appropriate concentration of each reagent as specified in Table 1 (NADPH, NADP+, G6P, G6PDH, and/or MgCl2). The amount of CYPexpress reagent in units/(mg/mL) was determined for each enzyme as new lots may have slightly different activities, and the activity of the reagent may change over time. The appropriate mass of each CYPexpress^TM reagent needed to obtain the required units was measured using an analytical balance and was transferred to the master mix solution. This solution was mixed, and 30 µL of the solution was added to each well using a multichannel pipette. […] The plate was then transferred to the plate reader and readings were taken at the time intervals, for the appropriate length of time, and at the appropriate wavelengths as specified in Table 1.
Calibration curves were constructed using the determined plate reader settings (Figure S3) and concentrations of the products formed to allow for the calculation of product formation rates based on the observed fluorescence. For these calculations, we presumed that the total increase in observed fluorescence over time was due only to product formation. Calibration curves were generated with 6 different concentrations of the products (fluorescein and resorufin), which spanned the relative fluorescence units (RFU) observed during the kinetic experiments. […] Therefore, the exact rate of formation could not be determined, and the Vmax for CYP3A4 cleavage of dibenzyl fluorescein has been reported as the rate of change in relative fluorescence units (RFUs) per minute.

The mark [1] stands for this setting: other: CYP3A4 1 mg/mL, three biological replicates.

B1: CYP3A4 (Homo sapiens) (protein)
chain: ALIPDLAMETWLLLAVSLVLLYLYGTHSHGLFKKLGIPGPTPLPFLGNILSYHKGFCMFDMECHKKYGKVWGFYDGQQPVLAITDPDMIKTVLVKECYSVFTNRRPFGPVGFMKSAISIAEDEEWKRLRSLLSPTFTSGKLKEMVPIIAQYGDVLVRNLRREAETGKPVTLKDVFGAYSMDVITSTSFGVNIDSLNNPQDPFVENTKKLLRFDFLDPFFLSITVFPFLIPILEVLNICVFPREVTNFLRKSVKRMKESRLEDTQKHRVDFLQLMIDSQNSKETESHKALSDLELVAQSIIFIFAGYETTSSVLSFIMYELATHPDVQQKLQEEIDAVLPNKAPPTYDTVLQMEYLDMVVNETLRLFPIAMRLERVCKKDVEINGMFIPKGVVVMIPSYALHRDPKYWTEPEKFLPERFSKKNKDNIDPYIYTPFGSGPRNCIGMRFALMNMKLALIRVLQNFSFKPCKETQIPLKLSLGGLLQPEKPVVLKVESRDGTVSGA
notes: purchased Sigma Aldrich (CYPexpress, Oxford Biomedical Research, Inc.) MTOXCE3A4
Consider B1, for which the Km (usually the substrate concentration at which the rate is half of its maximum) under setting [1] turned out to be 1.77 ± 0.3 µM; the Michaelis constant (Km) (other: CYP3A4, biological repeat 1) is 2.12 µM; the Km (other: CYP3A4, biological repeat 2) came out at 1.56 µM; the Km (other: CYP3A4, biological repeat 3) was found to be 1.61 µM. For the same protein, the Vmax under setting [1] is on record as 91.20 ± 13.9 (RFU/min).

The record behind these values is paper PMC12074421, “Development and Characterization of pFluor50, a Fluorogenic-Based Kinetic Assay System for High-Throughput Inhibition Screening and Characterization of Time-Dependent Inhibition and Inhibition Type for Six Human CYPs” (Molecules, 2025).
